Measurements: PubChem BioAssay AID504339 (National Center for Advancing Translational Sciences (NCATS), 2011)
Among all 390,000 compounds or so, about 17,000 (4.4%) were called active. The inconclusive results got no clear call from the source; some entries with a clear call stand among them for comparison. Calls come from the whole dose curve; as a rule, active = well fitted inhibition curve with a large enough effect; inconclusive = small, poorly fitted or top-dose-only effect; inactive = no such curve, though single readings can be large or run the other way. Potencies beside an inconclusive call are fits to weak or partial responses and may not hold up.

Target: Lysine-specific demethylase 4A (Homo sapiens) (UniProt O75164)
Chain of UniProt O75164 (O75164 whole entry, looked up, the tested form may be a part): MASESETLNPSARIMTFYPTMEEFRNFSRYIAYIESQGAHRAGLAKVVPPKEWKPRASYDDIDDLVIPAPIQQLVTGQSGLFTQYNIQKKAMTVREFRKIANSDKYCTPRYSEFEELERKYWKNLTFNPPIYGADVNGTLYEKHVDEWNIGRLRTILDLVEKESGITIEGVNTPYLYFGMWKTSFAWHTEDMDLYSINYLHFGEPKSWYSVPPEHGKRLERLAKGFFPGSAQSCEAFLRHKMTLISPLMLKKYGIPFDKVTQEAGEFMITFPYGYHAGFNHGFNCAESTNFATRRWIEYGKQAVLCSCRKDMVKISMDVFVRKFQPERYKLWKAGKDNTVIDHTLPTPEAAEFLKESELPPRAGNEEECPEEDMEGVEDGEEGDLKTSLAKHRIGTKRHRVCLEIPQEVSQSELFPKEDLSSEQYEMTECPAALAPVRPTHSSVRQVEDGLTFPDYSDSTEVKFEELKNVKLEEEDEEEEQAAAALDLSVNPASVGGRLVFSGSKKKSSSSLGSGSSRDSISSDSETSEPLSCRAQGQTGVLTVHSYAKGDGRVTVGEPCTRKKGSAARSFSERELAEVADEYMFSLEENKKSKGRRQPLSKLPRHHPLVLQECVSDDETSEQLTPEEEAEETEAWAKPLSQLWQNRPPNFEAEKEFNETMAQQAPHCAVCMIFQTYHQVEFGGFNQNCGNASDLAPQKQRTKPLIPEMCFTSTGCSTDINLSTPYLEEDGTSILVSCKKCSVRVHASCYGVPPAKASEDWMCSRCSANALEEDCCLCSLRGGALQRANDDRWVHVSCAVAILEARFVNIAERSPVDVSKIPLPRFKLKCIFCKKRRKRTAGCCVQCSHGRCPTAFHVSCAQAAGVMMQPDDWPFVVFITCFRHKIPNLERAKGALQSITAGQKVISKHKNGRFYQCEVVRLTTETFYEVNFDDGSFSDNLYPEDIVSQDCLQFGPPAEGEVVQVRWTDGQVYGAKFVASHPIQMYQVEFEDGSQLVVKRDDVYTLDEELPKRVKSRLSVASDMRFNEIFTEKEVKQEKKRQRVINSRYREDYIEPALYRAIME
Assay: qHTS Assay for Inhibitors of JMJD2A-Tudor Domain; note: nearly all actives have a fitted effect of over 50% in size
Settings: AlphaScreen JMJD2A-Tudor / H3K4me3 peptide binding; activity change, negative = inhibition: at 114 µM (top of the series)
% is set by controls: 0 for no effect and ±100 for the full control effect; potency is the fitted concentration of half-maximal effect; tags give direction and shape of the fitted curve.

Row | Structure (SMILES) | Potency | activity change, negative = inhibition
1 | Fc1cccc(/C=C2\CCCC3=C2NC(=S)NC3c2cccc(F)c2)c1 (configuration not stated) | inconclusive: 50.1 µM [inhibitor, partial curve] | 
2 | CN(C)S(=O)(=O)c1cccc(-c2csc(=Nc3ccccc3)n2CCCN2CCOCC2)c1 | active: 50.1 µM | 
3 | Cc1ccc(-n2ncc3c(NCc4ccco4)ncnc32)cc1C |  | inactive: -0.725%
4 | COc1cc(-c2nc(-c3ccc4c(c3)-c3ccccc3S4(=O)=O)c(-c3ccccc3)[nH]2)cc(OC)c1O | inconclusive: 28.2 µM [inhibitor, partial curve] | 
5 | CCCn1c(C)cc(C(=O)COc2ccc(-c3nnco3)cc2)c1C |  | inactive: -33.2%
6 | O=C(NCc1ccccc1F)C1CCN(c2nnc(-n3cccc3)s2)CC1 |  | inactive: -22.3%
7 | COc1ccc(NC(=S)N(CCc2c(C)[nH]c3ccccc23)Cc2ccco2)cc1 | inconclusive: 50.1 µM [inhibitor, partial curve] | 
8 | O=C1/C(=C/c2cccc([N+](=O)[O-])c2)CCc2ccccc21 | inconclusive: 56.2 µM [inhibitor, partial curve] | 
9 | NC(=S)Nc1ccc(F)c(F)c1F |  | inactive: -3.32%
10 | COc1ccc(C2/C(=C(/O)c3ccc4c(c3)CC(C)O4)C(=O)C(=O)N2CCCn2ccnc2)cc1 (configuration not stated) | inconclusive: 25.1 µM [inhibitor, full curve, poor fit] | 
11 | O=[N+]([O-])c1ccccc1CN1CCN(Cc2c[nH]c3ccccc23)CC1 | active: 10 µM | 
12 | Clc1ccc(OCCN2CCCCC2)cc1Cl | active: 22.4 µM | 
13 | Cc1ccc2sc(N(CCN(C)C)C(=O)c3ccc(S(=O)(=O)N4CC(C)OC(C)C4)cc3)nc2c1C (configuration not stated) | inconclusive: 25.1 µM [inhibitor, partial curve] | 
14 | CCc1ccc(CNC(=O)c2c3c(nc4ccccc24)C(=O)N(C2CCCCC2)C3)cc1 | inconclusive: 89.1 µM [inhibitor, partial curve, poor fit] | 
15 | CC(C)C[C@@H](CNCC(=O)[C@H](C)NC(=O)c1[nH]cnc1C(=O)N[C@@H](C)CN)NC(=O)c1nc[nH]c1C(=O)N[C@@H](CO)C(=O)O | active: 89.1 µM | 
16 | COc1ccc(NC2(c3ccc(Cl)cc3)C(=O)c3ccccc3C2=O)cc1 | active: 56.2 µM | 
17 | COc1cc2c(=O)c(C(=O)c3ccc(C)c(C)c3)cn(Cc3ccccc3F)c2cc1OC |  | inactive: -23.6%
18 | COc1cccc(-c2nc(S(=O)(=O)c3ccccc3)c(N3CCCCC3)o2)c1 |  | inactive: -29.4%
19 | CCOC(=O)Nc1ccc2c(CN3C(=O)NC(CC)(CC)C3=O)cc(=O)oc2c1 |  | inactive: 6.96%
20 | CCn1c(C(C)NC(=O)c2cccs2)n[nH]c1=S (configuration not stated) | active: 7.08 µM | 
21 | COc1ccc(F)cc1C(=O)C1CCCN(Cc2cccn2-c2cccnc2)C1 (configuration not stated) | inconclusive: 63.1 µM [inhibitor, partial curve] | 
22 | CCCCC1CCC(C(=O)OCC(=O)N(CCOC)c2c(N)n(Cc3ccccc3)c(=O)[nH]c2=O)CC1 (configuration not stated) |  | inactive: -5.48%
23 | ON=C1c2ccccc2-c2ccc(O)cc21 | inconclusive: 50.1 µM [inhibitor, partial curve] | 
24 | CC(C)Cc1ccc(S(=O)(=O)N2CCC(c3ccncc3)CC2)cc1 |  | inactive: -7%

Row | Structure (SMILES) | Potency | activity change, negative = inhibition
25 | COc1ccc(NC(=O)c2cccc(N3CCCS3(=O)=O)c2)cc1OC |  | inactive: -10.4%
26 | O=[N+]([O-])c1c(Nc2ccccc2O)cc(N2CCOCC2)c2nonc12 | inconclusive: 56.2 µM [inhibitor, partial curve] | 
27 | Cc1c(C(=O)Nc2ccc(F)cc2)cn2c(nc3ccccc32)c1C#N |  | inactive: 11.6%
28 | COCCn1c(C)cc(/C=N/NC(=O)c2cc3ccccc3cc2O)c1C | inconclusive: 50.1 µM [inhibitor, partial curve] | 
29 | COc1cc(CCN2C(=O)c3cccc4cccc(c34)C2=O)c(S(=O)(=O)N2CCC(C)CC2)cc1OC |  | inactive: -31.5%
30 | CN(C)c1ccc(-n2cc3c(=O)n(C)c(=O)n(C)c3c2)cc1 | inconclusive: 79.4 µM [inhibitor, partial curve] | 
31 | CCN(CC)CCOc1cc2c(nn1)Oc1ccccc1N2C | inconclusive: 50.1 µM [inhibitor, partial curve] | 
32 | O=c1[nH]ncc(N2CCCCCC2)c1Cl |  | inactive: 0.699%
33 | CC(=O)Nc1ccc(NC(=O)C2CCN(c3c(NC(C)=O)c(C)nn3-c3ccccc3)CC2)cc1 |  | inactive: -6.17%
34 | O=C1C=CN2CCCCC2CC1 (configuration not stated) | inconclusive: 79.4 µM [inhibitor, partial curve] | 
35 | O=C(Nc1ccc2c(c1)OCO2)c1ccc(Br)o1 |  | inactive: -24.5%
36 | C[n+]1ccc(/C=N/Nc2nc(Cl)c(C#N)c(Cl)c2Cl)cc1 | inconclusive: 56.2 µM [inhibitor, partial curve] | 
37 | CCN(CC)C(=O)[C@H]1C[C@H](CC(=O)NCc2cccc(C(F)(F)F)c2)C(=O)N2CCc3c([nH]c4cc(-c5ccco5)ccc34)[C@]12C | inconclusive: 22.4 µM [inhibitor, full curve] | 
38 | Cc1ccc(-c2c(=O)n(O)c3ccccc3[n+]2[O-])cc1 | inconclusive: 31.6 µM [inhibitor, single point] | 
39 | COc1ccc(CCNC(=O)COC(=O)c2cnc(C)cn2)cc1 | inconclusive: 100 µM [inhibitor, single point] | 
40 | CCCN1C(=O)/C(=C\C=C2\N(CC)c3ccccc3C2(C)C)SC1=S | active: 8.91 µM | 
41 | COc1nc(N2CCCCCC2)nc(N2CCCCCC2)n1 |  | inactive: 27.4%
42 | C#CCOCCOCCOCCNc1nc(N2CCN(C(=O)CCCCCCCCCCNC(=O)[C@H]([C@@H](C)CC)n3cc(CCCCN=C(N)N)nn3)CC2)nc(N2CCN(C(=O)CCCCCCCCCCNC(=O)[C@H](CO)n3cc(CCCSC)nn3)CC2)n1 | active: 20 µM | 
43 | Cc1cc2c(s1)c1cnn(Cc3c(F)ccc(C)c3Cl)c(=O)c1n2C |  | inactive: -13%
44 | O=C(Oc1ccccc1C(=O)Oc1ccccc1)c1cccnc1 | inconclusive: 39.8 µM [inhibitor, single point] | 
45 | CCSc1nc2ccccc2n1C(=O)/C=C\c1ccc(OC)c(OC)c1 |  | inactive: -16.4%
46 | CCSc1nnc(NC(=O)c2ccccn2)s1 | active: 8.91 µM | 
47 | COc1ccc(C)cc1Nc1nc(-c2c(C)[nH]c3ccccc23)cs1 | inconclusive: 100 µM [inhibitor, single point] | 
48 | CC1=C(C(=O)Nc2ccc([N+](=O)[O-])cc2)C(c2cccc(C(F)(F)F)c2)NC(=S)N1c1ccccc1 (configuration not stated) | inconclusive: 25.1 µM [inhibitor, full curve, poor fit] | 

Row | Structure (SMILES) | Potency | activity change, negative = inhibition
49 | CN(CCOc1ccccc1)CC(O)COCc1ccccc1F (configuration not stated) | inconclusive: 12.6 µM [inhibitor, single point] | 
50 | Cc1c(Cl)cccc1NC(=S)NCc1cccn1C | inconclusive: 22.4 µM [inhibitor, single point] | 
51 | O=C(O)CN1C(=O)/C(=C\C(Br)=C\c2ccccc2)SC1=S | inconclusive: 63.1 µM [inhibitor, partial curve, poor fit] | 
52 | c1ccc(N2CCN(Cc3nc4ccccc4[nH]3)CC2)nc1 |  | inactive: -13%
53 | Cc1ccnc(SCC(=O)N2CCN(C(c3ccccc3)c3ccccc3)CC2)n1 |  | inactive: -18%
54 | CCCOc1cccc(-c2cc(C(=O)N/N=C/c3ccccn3)c3ccccc3n2)c1 | inconclusive: 63.1 µM [inhibitor, partial curve] | 
55 | COc1ccc(N2C(=O)CC(Sc3ccccc3C(=O)O)C2=O)c([N+](=O)[O-])c1 (configuration not stated) | inconclusive: 22.4 µM [inhibitor, full curve] | 
56 | Cc1cccc(Cn2c(CN3CCC(C(=O)NCc4cccnc4)CC3)cc3ccccc32)c1 | inconclusive: 50.1 µM [inhibitor, partial curve] | 
57 | Cc1ncc([N+](=O)[O-])n1CCOC(=O)NC(NCc1ccccc1)C(Cl)(Cl)Cl (configuration not stated) |  | inactive: -16.2%
58 | COc1cccc(CSc2nc3n(n2)C(c2cccs2)C(C(=O)Nc2ccccc2C)=C(C)N3)c1 (configuration not stated) |  | inactive: -14.7%
59 | Nc1sc2c(c1C(=O)c1ccccc1)CCCC2 | inconclusive: 39.8 µM [inhibitor, partial curve] | 
60 | Nc1nc2sc3c(c2cc1C(=O)N1CCOCC1)CCCC3 | active: 14.1 µM | 
61 | Cc1ccc(-c2nc(C#N)c(NCCN3CCCCC3)o2)cc1 | inconclusive: 22.4 µM [inhibitor, full curve, poor fit] | 
62 | COc1ccc(Nc2nc(N)nc(CSC(=S)N3CCCCC3C)n2)cc1 (configuration not stated) | inconclusive: 28.2 µM [inhibitor, partial curve] | 
63 | C/C(=N/NC(=O)Cc1cccs1)c1ccco1 | inconclusive: 28.2 µM [inhibitor, single point] | 
64 | C=CCOc1ccccc1CN1CCCCCC1 | active: 1.41 µM | 
65 | CCOC(=O)c1c(C)oc2nc(C)nc(N3CCN(c4ccc(C(C)=O)cc4)CC3)c12 |  | inactive: -1.94%
66 | COc1ccc(C2=NO[C@@H]3C(=O)N(c4ccc(C)cc4C)C(=O)[C@H]23)cc1OC | inconclusive: 89.1 µM [inhibitor, single point] | 
67 | OCCN(Cc1ccccc1)Cc1cccc(Cl)c1Cl | active: 10 µM | 
68 | Oc1ccc(-c2csc(Nc3ncccn3)n2)cc1O | active: 28.2 µM | 
69 | CCOC(=O)[C@H]1[C@H]2COc3ccc(Br)cc3[C@@H]2N2C(=O)CN(Cc3ccco3)C(=O)[C@@]12C | inconclusive: 70.8 µM [inhibitor, single point] | 
70 | COc1ccc(OCC2c3cc(OC)c(OC)cc3CCN2C(=O)c2ccc(F)cc2)cc1 (configuration not stated) | inconclusive: 44.7 µM [inhibitor, partial curve] | 
71 | C=Cc1ccc(Cn2c(C(=O)O)c(CNCc3cccs3)c3ccc(C)cc32)cc1 | inconclusive: 44.7 µM [inhibitor, partial curve] | 
72 | S=c1[nH]c2ccccc2n1CCOc1ccccc1 | inconclusive: 56.2 µM [inhibitor, partial curve] | 
